From patent US20220127372A1

target: human claudin 18.2 (human); assay: cell-based or functional assay
Sequence (chain, as listed by the source limits assumed, form in doubt): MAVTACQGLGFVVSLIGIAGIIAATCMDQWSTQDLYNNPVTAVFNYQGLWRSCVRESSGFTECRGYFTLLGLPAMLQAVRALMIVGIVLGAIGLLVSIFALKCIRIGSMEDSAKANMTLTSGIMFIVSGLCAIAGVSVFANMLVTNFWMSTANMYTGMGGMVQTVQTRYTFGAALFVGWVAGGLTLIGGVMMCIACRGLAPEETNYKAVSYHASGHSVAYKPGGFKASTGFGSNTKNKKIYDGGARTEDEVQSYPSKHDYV

Row | Binder | IFN-γ secretion after co-incubation with BxPC-3-Claudin18.2 cells, 1:1, 24 hours (CBA kit) | IFN-γ secretion after co-incubation with HGC27-Claudin18.2 cells, 1:1, 24 hours (CBA kit) | IL-2 secretion after co-incubation with BxPC-3-Claudin18.2 cells, 1:1, 24 hours (CBA kit) | IL-2 secretion after co-incubation with HGC27-Claudin18.2 cells, 1:1, 24 hours (CBA kit) | TNF-α secretion after co-incubation with BxPC-3-Claudin18.2 cells, 1:1, 24 hours (CBA kit) | TNF-α secretion after co-incubation with HGC27-Claudin18.2 cells, 1:1, 24 hours (CBA kit)
1 | claudin18.2-SL-CD3ε (protein) QVQLQESGPGLIKPSQTLSLTCTVSGGSISSGYNWHWIRQPPGKGLEWIGYIHYTGSTNYNPALRSRVTISVDTSKNQFSLKLSSVTAADTAIYYCARIYNGNSFPYWGQGTTVTVSSGGGGSGGGGSGGGGSDIVMTQSPDSLAVSLGERATINCKSSQSLFNSGNQKNYLTWYQQKPGQPPKLLIYWASTRESGVPDRFSGSGSGTDFTLTISSLQAEDVAVYYCQNAYSFPYTFGGGTKLEIKRAAAGGGGSGGGGSGGGGSLE[sequence of about 200 residues omitted] | 1870 | 1030 | 900 | 541 | 83.1 | 62.9
2 | claudin18.2-SL-CD3γ (protein) QVQLQESGPGLIKPSQTLSLTCTVSGGSISSGYNWHWIRQPPGKGLEWIGYIHYTGSTNYNPALRSRVTISVDTSKNQFSLKLSSVTAADTAIYYCARIYNGNSFPYWGQGTTVTVSSGGGGSGGGGSGGGGSDIVMTQSPDSLAVSLGERATINCKSSQSLFNSGNQKNYLTWYQQKPGQPPKLLIYWASTRESGVPDRFSGSGSGTDFTLTISSLQAEDVAVYYCQNAYSFPYTFGGGTKLEIKRAAAGGGGSGGGGSGGGGSLE[sequence of about 150 residues omitted] | 1460 | 762 | 440 | 279 | 34.2 | 45.1
3 | claudin18.2-LL-CD3ε (protein) QVQLQESGPGLIKPSQTLSLTCTVSGGSISSGYNWHWIRQPPGKGLEWIGYIHYTGSTNYNPALRSRVTISVDTSKNQFSLKLSSVTAADTAIYYCARIYNGNSFPYWGQGTTVTVSSGGGGSGGGGSGGGGSDIVMTQSPDSLAVSLGERATINCKSSQSLFNSGNQKNYLTWYQQKPGQPPKLLIYWASTRESGVPDRFSGSGSGTDFTLTISSLQAEDVAVYYCQNAYSFPYTFGGGTKLEIKRAAIEVMYPPPYLGGGGSGGGGSGGGGSLE[sequence of about 200 residues omitted] | 2030 | 1180 | 886 | 532 | 118 | 107
4 | claudin18.2-LL-CD3γ (protein) QVQLQESGPGLIKPSQTLSLTCTVSGGSISSGYNWHWIRQPPGKGLEWIGYIHYTGSTNYNPALRSRVTISVDTSKNQFSLKLSSVTAADTAIYYCARIYNGNSFPYWGQGTTVTVSSGGGGSGGGGSGGGGSDIVMTQSPDSLAVSLGERATINCKSSQSLFNSGNQKNYLTWYQQKPGQPPKLLIYWASTRESGVPDRFSGSGSGTDFTLTISSLQAEDVAVYYCQNAYSFPYTFGGGTKLEIKRAAIEVMYPPPYLGGGGSGGGGSGGGGSLE[sequence of about 150 residues omitted] | 813 | 349 | 117 | 27.7 | 13.2 | 13.8
